This passage reports binding results from article PMC9512926.

By UniProt entry, the sequences of proteins in these tests, tags left out. Where a name states a change or a piece, a line headed by the entry shows the natural chain unless it says otherwise. Residues count along the entry.
UniProt P35637: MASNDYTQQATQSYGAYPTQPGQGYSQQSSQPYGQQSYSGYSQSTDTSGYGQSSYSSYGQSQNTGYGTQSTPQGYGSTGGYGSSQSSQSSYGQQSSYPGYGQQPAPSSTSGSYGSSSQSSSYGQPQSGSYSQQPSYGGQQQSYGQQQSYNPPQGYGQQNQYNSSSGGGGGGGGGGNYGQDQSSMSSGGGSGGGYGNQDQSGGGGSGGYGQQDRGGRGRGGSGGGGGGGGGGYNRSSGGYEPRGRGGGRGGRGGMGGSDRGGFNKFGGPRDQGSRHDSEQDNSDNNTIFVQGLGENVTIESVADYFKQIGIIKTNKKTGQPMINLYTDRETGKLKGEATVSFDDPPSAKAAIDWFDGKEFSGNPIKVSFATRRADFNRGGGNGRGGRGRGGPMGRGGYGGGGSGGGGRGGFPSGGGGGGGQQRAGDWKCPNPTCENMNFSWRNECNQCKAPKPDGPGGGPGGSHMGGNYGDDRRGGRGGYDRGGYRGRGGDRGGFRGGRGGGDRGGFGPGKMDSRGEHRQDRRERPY
FLAG-FUS 1–359: residues 1-359 of P35637

The target of assay [1] is FLAG-FUS WT (fused in sarcoma, wild-type) (UniProt P35637). Briefly: co-IP; FLAG-IP (anti-FLAG M2 affinity gel, 3 h, 4 °C) of lysates of transfected HEK293A cells; lysis buffer 50 mM Tris-HCl pH 7.4, 150 mM NaCl, 0.5% TritonX-100, 10% glycerol; Western blotting for DHX30; in one panel 10 μg/ml RNase A was added to the cleared lysates (interaction decreased). For orientation: In western blotting, separated proteins are transferred to a membrane and probed.

Another assay has as its target FLAG-FUS 1–359 (UniProt P35637). The assay is described as above.
Assay [2] concerns the target FLAG-FUS P525L (UniProt P35637). The assay is described as above.
The target of a further assay is FLAG-FUS R521C (UniProt P35637). Described as above.
The target of assay [3] is FLAG-FUS WT (fused in sarcoma, wild-type) (UniProt P35637). Briefly: co-IP; FLAG-IP after subcellular fractionation of transfected HEK293A cells: mitochondrial and cytosolic compartments; Western blotting.
Assay [4] addresses FLAG-FUS P525L (UniProt P35637). The assay is described as above.
Assay [5] addresses FLAG-FUS WT (SH-SY5Y, tetracycline-inducible stable line) (UniProt P35637). Briefly: co-IP; FLAG-IP of SH-SY5Y cells with stable inducible expression of FLAG-FUS, 48 h post-induction; expression comparable to endogenous FUS; Western blotting.
Assay [6] addresses FLAG-FUS P525L (SH-SY5Y, tetracycline-inducible stable line) (UniProt P35637). The assay is described as above.

Results are given in words; binding and its absence hold for the method and conditions named. Binding seen in cells or lysates may run through a third protein. Some entries that bind do so weakly or less than the wild type.

B1: DHX30, ATP-dependent RNA helicase (endogenous, HEK293A) (protein, UniProt Q7L2E3 1-1194)
chain: MFSLDSFRKDRAQHRQRQCKLPPPRLPPMCVNPTPGGTISRASRDLLKEFPQPKNLLNSVIGRALGISHAKDKLVYVHTNGPKKKKVTLHIKWPKSVEVEGYGSKKIDAERQAAAAACQLFKGWGLLGPRNELFDAAKYRVLADRFGSPADSWWRPEPTMPPTSWRQLNPESIRPGGPGGLSRSLGREEEEDEEEELEEGTIDVTDFLSMTQQDSHAPLRDSRGSSFEMTDDDSAIRALTQFPLPKNLLAKVIQIATSSSTAKNLMQFHTVGTKTKLSTLTLLWPCPMTFVAKGRRKAEAENKAAALACKKLKSLGLVDRNNEPLTHAMYNLASLRELGETQRRPCTIQVPEPILRKIETFLNHYPVESSWIAPELRLQSDDILPLGKDSGPLSDPITGKPYVPLLEAEEVRLSQSLLELWRRRGPVWQEAPQLPVDPHRDTILNAIEQHPVVVISGDTGCGKTTRIPQLLLERYVTEGRGARCNVIITQPRRISAVSVAQRVSHELGPSLRRNVGFQVRLESKPPSRGGALLFCTVGILLRKLQSNPSLEGVSHVIVDEVHERDVNTDFLLILLKGLQRLNPALRLVLMSATGDNERFSRYFGGCPVIKVPGFMYPVKEHYLEDILAKLGKHQYLHRHRHHESEDECALDLDLVTDLVLHIDARGEPGGILCFLPGWQEIKGVQQRLQEALGMHESKYLILPVHSNIPMMDQKAIFQQPPVGVRKIVLATNIAETSITINDIVHVVDSGLHKEERYDLKTKVSCLETVWVSRANVIQRRGRAGRCQSGFAYHLFPRSRLEKMVPFQVPEILRTPLENLVLQAKIHMPEKTAVEFLSKAVDSPNIKAVDEAVILLQEIGVLDQREYLTTLGQRLAHISTDPRLAKAIVLAAIFRCLHPLLVVVSCLTRDPFSSSLQNRAEVDKVKALLSHDSGSDHLAFVRAVAGWEEVLRWQDRSSRENYLEENLLYAPSLRFIHGLIKQFSENIYEAFLVGKPSDCTLASAQCNEYSEEEELVKGVLMAGLYPNLIQVRQGKVTRQGKFKPNSVTYRTKSGNILLHKSTINREATRLRSRWLTYFMAVKSNGSVFVRDSSQVHPLAVLLLTDGDVHIRDDGRRATISLSDSDLLRLEGDSRTVRLLKELRRALGRMVERSLRSELAALPPSVQEEHGQLLALLAELLRGPCGSFDVRKTADD
On to B1, for which the binding entry was “binds” in assay [1]; “no binding” with FLAG-FUS 1–359; “binds” with FLAG-FUS P525L [2]; “binds” with FLAG-FUS R521C; “binds” in assay [3]; “binds” with FLAG-FUS P525L [4].

B2: DHX30, ATP-dependent RNA helicase (SH-SY5Y) (protein, UniProt Q7L2E3 1-1194)
chain: B1 chain
In the case of B2, the binding result in assay [5] and in assay [6] was “binds” each time.
